Measurements taken from PubChem BioAssay (NCATS).
Values joined by “and” are separate entries in the source; they are usually repeats but may differ in a detail not shown here. Equal entries are not always repeated. Inconclusive results, whose numbers are uncertain, are shown with a selection of clear calls. Where the call is inconclusive, the potency comes from a doubtful curve fit. Active and inactive are the calls of the source. Calls come from the whole dose curve; as a rule, active = well fitted curve in the direction sought with a large enough effect; inconclusive = small, poorly fitted or top-dose-only effect, or another doubt; inactive = no such curve, though single readings can be large; an effect the other way counts as inactive or inconclusive.

Columns and labels:
[1] = Viability qHTS for spleen associated tyrosine kinase inhibitor (SYKi) naive MV4-11 cells (AID 1963823); note: nearly all actives have a fitted effect of over 40% in size
Procedure, shortened: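 SYK inhibitor-naive MV4-11 cells, 500 per well, exposed to compounds for 72 hr at 37 C, 5% CO2. Viability read as CellTiter-Glo luminescence after 10 min at room temperature.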

[2] = Cellular viability qHTS for adrenocortical cancer (ACC) cell line NCI-H295R (AID 1963990); details: CellTiter-Glo ATP luminescence, 48 h; series mostly up to 46.1 µM; note: nearly all actives have a fitted effect of over 60% in size
Procedure, shortened: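 IC50 and maximal efficacy derive from four-parameter logistic modelling of titration curves, with reads scaled between DMSO-only wells (0%) and doxorubicin hydrochloride (100% inhibition). Compounds spanned up to 46 uM over 48 h.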

[3] = Cellular viability qHTS for adrenocortical cancer (ACC) cell line SW-13 (AID 1963989); details: SW-13 ACC cells viability, CellTiter-Glo, 48 h; activity (max response): stronger effect = lower value; note: nearly all actives have a fitted effect of over 65% in size
Procedure, shortened: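 Luminescent ATP read-out (CellTiter-Glo, 20 min at room temperature) measured metabolically competent SW-13 cells after 48 h compound treatment. Final concentrations spanned up to 46 uM; bortezomib served as positive control.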
Potency is the fitted concentration of half-maximal effect; tags give direction and shape of the fitted curve.

Compound | Potency [1] | Potency [2] | Potency [3]
CC(C)NCC(O)c1ccc(N)c(C#N)c1 (stereo not given) | inactive | inactive | –
C=CCOC(Cn1ccnc1)c1ccc(Cl)cc1Cl (stereo not given) | inconclusive: 3.35 µM [cytotoxic, partial curve, poor fit] | – | inconclusive: 18.4 µM [cytotoxic, single point]
COC(=O)[C@@]12OC[C@]34[C@H]([C@@H](O)[C@@H]1O)[C@@]1(C)CC(=O)C(O)=C(C)[C@@H]1C[C@H]3OC(=O)[C@H](OC(=O)/C=C(\C)C(C)C)[C@@H]24 | inconclusive: 0.0148 µM [cytotoxic, full curve] | active: 12.6 µM | –
Cc1sc2c(c1C)C(c1ccc(Cl)cc1)=N[C@@H](CC(N)=O)c1nnc(C)n1-2 | inconclusive: 73.1 nM [cytotoxic, full curve] and active: 83.3 nM | inconclusive: 3.98 µM [cytotoxic, partial curve] | inconclusive: 25.1 µM [cytotoxic, partial curve, poor fit]
O=C(NC(=O)c1c(F)cccc1F)Nc1cc(Cl)c(OC(F)(F)C(F)C(F)(F)F)cc1Cl (stereo not given) | active: 11.9 µM | – | inconclusive: 9.2 µM [cytotoxic, partial curve, poor fit]
CO/C=C(/C(=O)OC)c1ccccc1Oc1cc(Oc2ccccc2C#N)ncn1 | active: 13.7 µM | – | inconclusive: 8.91 µM [cytotoxic, partial curve]
CCO[C@H]1O[C@@H]2OC3(C)CC[C@H]4[C@H](C)CC[C@@H]([C@H]1C)[C@@]24OO3 | active: 4.22 µM | – | inconclusive: 16.4 µM [cytotoxic, partial curve, poor fit]
